Experimental data reported in ChEMBL document CHEMBL1157539, “Thousands of chemical starting points for antimalarial lead identification” (Nature, 2010).
The full ranking holds about 13,000 compounds; the median of “IFI” is about 4, and the highest 2% start at about 17. Some of the results follow.

Assay: GSK_TCMDC: Inhibition Frequency Index (IFI). The number of non-kinase HTS assays where a compound showed > 50 % inhibition, expressed as a percentage of the number of such assays in which the compound was tested (-0 is zero)
Assay type: functional

SMILES | IFI [%]
Cc1ccc2ncc(Cl)c(CCN3CCC(NCc4ccc5c(n4)NC(=O)CS5)CC3)c2n1 | 3.13
N#Cc1ccc(-c2ccc(C(=O)NCCCCN3CCC(c4ccc5c(c4OCc4ccncc4)CCCC5)CC3)cc2)cc1 | 5.41
COc1cccc2c(C)cc(NCc3ccc(Cl)cc3)nc12 | 1.42
O=C(Nc1ccc(-c2nc3ccccc3[nH]2)cc1)c1ccc(-c2cccc([N+](=O)[O-])c2)o1 | 4.23
COc1c(CCNCCCCNCCc2cc(Cl)c3ccccc3c2OC)cc(Cl)c2ccccc12 | 19
CN(C)c1ccc(-c2ccc(C(=O)NC3CCN(Cc4ccc(C(C)(C)C)cc4)CC3)s2)cc1 | 15.8
O=C(Cc1ccccc1)NC(Nc1ccc([N+](=O)[O-])cc1)C(Cl)(Cl)Cl (centres undefined) | 6.99
CCCCCCNC[C@@H](O)[C@H](Cc1ccccc1)NC(=O)c1cc(NCC)cc(N2CCCCS2(=O)=O)c1 | 3.73
COc1ccc2nccc([C@@H](O)CN3CCC(NCc4ccc5c(c4)NC(=O)CO5)CC3)c2c1 | 1.5
O=C(Nc1cccc(-c2ccc(-c3nc4cc(F)ccc4[nH]3)s2)c1)c1ccncc1 | 7.02
Oc1ccc(CCNc2nc(NCCCOc3ccccc3-c3ccc(F)cc3)nc(N3CCNCC3)n2)cc1 | 13.8
COc1cccc(CNC[C@@H](O)[C@H](Cc2ccccc2)NC(=O)c2cc(N3CCCC3=O)c3[nH]cc(C(C)C)c3c2)c1 | 2.86
Cc1cnc(NCC2CCCCC2)nc1NCC(=O)Nc1ccccc1 | 8.7
O=C(c1cccc(Br)c1)N1CCN(c2ccc([N+](=O)[O-])c(NC3CC3)c2)CC1 | 4.2
O=S(=O)(c1c(Cl)cccc1Cl)N1CCCCC(c2ccc(C(F)(F)F)cc2)=N1 | 3.08
CN1CCN(CCCN(Cc2cccc(-c3ccc(CNCc4ccc5c(c4)OCO5)cc3)c2)C(=O)CCC2CCCC2)CC1 | 7.97
O=[N+]([O-])c1ccc(N2CCCN(C(=S)Nc3ccc(F)cc3Br)CC2)nc1 | 4.55
CN(c1ccc(C(=O)N[C@@H](CCC(=O)O)C(=O)O)cc1)S(=O)(=O)c1ccc2nc(N)[nH]c(=O)c2c1 | 0.72
CC(=O)Nc1ncc(C(=O)Nc2cccc(-c3cccc(-c4nc5cc(C(F)(F)F)ccc5[nH]4)c3)c2)s1 | 5.41
CC(C)(C)c1ccc(S(=O)(=O)Nc2ccccc2N2CCOCC2)cc1 | -0
COc1cccc(NC(=O)Nc2c(-c3cccc(C(F)(F)F)c3)c(C(F)(F)F)nn2C)c1 | -0
COc1ccc(O)c(C(=O)c2cc(C(=O)NCCc3ccccc3)c(=O)n(CCc3ccccc3)c2)c1 | 2.38
COc1ccccc1C(=O)Nc1ccc(Nc2nc(C)cc(N(C)C)n2)cc1 | 2.38

SMILES | IFI [%]
CC(C)C[C@@H](/C=N/N1CCNC1=O)NC(=O)[C@H](CC(C)C)NC(=O)c1ccc(OCCN2CCOCC2)cc1 | 9.01
COc1ccc(C=NN=c2cc(C)[nH]c3c(C)cccc23)c2ccccc12 | 2.84
CCOC(=O)c1ccc(N2CCN(c3cc(C)ccc3C)CC2)c(NC(=O)Nc2ccc(Cl)c(Cl)c2)c1 | 1.48
Cc1ccc(C)c(Sc2ccc(NC(=O)CN3CCN(C(=O)c4ccco4)CC3)cc2)c1 | 8.33
Cc1cc2nc(-c3ccc(/C=C/C(=O)NC4CCCCC4)cc3)[nH]c2cc1C | 3.7
O=C(Cn1c(CCc2cccc(F)c2F)cc(=O)c2cccnc21)N(CCN1CCCC1)Cc1ccc(-c2ccc(C(F)(F)F)cc2)cc1 | 13.3
Cc1cc(Nc2cccc(C(F)(F)F)c2)nc(N)n1 | -0
O=C(Nc1cccc(OC2CCN(Cc3ccc(F)cc3)CC2)c1)c1ccc(C(F)(F)F)cc1 | 10.5
COc1ccc2nc(-c3ccccc3)cc(NCCCNc3cc(-c4ccccc4)nc4ccc(OC)cc34)c2c1 | 5.15
O=C(Nc1ccc(F)c(Cl)c1)NC1CCN(c2ccnc3cc(Cl)ccc23)C1 (centres undefined) | 9.23
CCn1c(-c2nonc2N)nc2c(-c3cccc(NC(=O)Nc4cccc(Cl)c4)c3)ncc(OCCCN)c21 | 17.6
CN(CC(=O)Nc1ccc(F)c(F)c1F)c1ncnc2sc(-c3ccccc3)cc12 | 0.84
CC1CCN(C(=O)[C@H](Cc2c[nH]c3ccccc23)NS(=O)(=O)c2ccc(Cl)cc2)CC1 | -0
O=C(/C=C/c1ccc(Cl)c(Cl)c1)N1CCC(CN2CCC(c3c[nH]c4ccncc34)CC2)CC1 | 5.04
Cc1nc(N/C=C/c2ccc(O)cc2)cc(N2CCCC2)n1 | -0
Cn1nc(-c2ccc(NC(=O)Nc3ccc4ccccc4c3)c(F)c2)c2cnc(NCCN3CCOCC3)nc21 | 3.52
Cc1cccc(NC(=O)c2cnc(N3CCN(c4ccncc4)CC3)c(Cl)c2)c1 | 7.14
Cc1cc(CN2CC[C@H](NC(=O)c3ccc(Cl)c(Cl)c3)C2)ccc1OC1CCN(Cc2ccccc2)CC1 | 6.9
Cc1cccc2nc(-c3ccc(-c4ccc(CN5CCC(C(N)=O)CC5)cc4)s3)[nH]c12 | 3.85
CC(C)(C)c1ccc(CN2CCCCC(NC(=O)c3cc(-c4ccccc4Cl)cs3)C2)cc1 (centres undefined) | 1.82
OC(CNCc1ccccc1OCc1ccccc1)c1cc(C(F)(F)F)cc(C(F)(F)F)c1 (centres undefined) | 5.98
CS(=O)(=O)CCNCc1cccc(-c2ccc3c(Nc4ccc(Oc5ccccc5)cc4)ccnc3c2)c1 | 3.68
CCC[C@@H]([C@@H](CC1CCCCC1)C(=O)N[C@H](C(=O)Nc1ccccn1)[C@H](C)CC)N(O)C=O | 2.92

SMILES | IFI [%]
CC(C)c1ccc(NC(S)=NN=Cc2ccccn2)cc1 | 6.47
CC(=O)c1ccc(NC(=O)Nc2ccc(N(C)c3ccnc(NC4CC4)n3)cc2)cc1 | 8.04
CC(C)C[C@H](NC(=O)c1cc(-c2ccc(F)cc2)no1)C(=O)O.CC(C)C[C@H](NC(=O)c1conc1-c1ccc(F)cc1)C(=O)O | -0
CC(C)c1ccc(S(=O)(=O)N(c2ccc3c(c2)OCO3)C2CCN(Cc3ccccc3)C2)cc1 (centres undefined) | 2.05
N=C(N)NN=Cc1ccccc1OCc1ccccc1Cl | 6.72
Cc1cc(NC(=O)c2sc3ccccc3c2O)no1 | 3.23
c1ccc(-c2cc(NCc3cccc4ccccc34)c3[nH]ncc3n2)cc1 | 2.88
O=C(Nc1ccc(-c2cccc(-c3nc4cc(F)ccc4[nH]3)c2)cc1)c1ccncc1 | 7.48
O=[N+]([O-])c1cccc(CNCC2CCN(CCc3ccccc3)CC2)c1 | 1.44
COc1ccc(CCN2CC[C@H](Nc3nc(-c4ccc(F)c(F)c4)nc4ccccc34)C2)cc1S(N)(=O)=O | 3.01
Cc1cc(N2CCCC2)nc(Nc2ccc(NC(=O)c3cccc(F)c3)cc2)n1 | 10.3
CCc1c(C)nc(-n2nc(C)cc2NC(=O)c2cccc3ccccc23)[nH]c1=O | 9.62
COc1ccc(C(=O)Nc2cc(Br)c3c(c2)CNCC3)cc1Br | 4.38
COc1ccc(CN(C)CCCc2ccc(NC(=O)Cc3ccc4nc(-c5ccccc5)ccc4c3)cc2)cc1OC | 3.36
O=C(Nc1ccc(-c2nc3ccccc3[nH]2)cc1)c1ccc(Cl)s1 | -0
CCc1ccc(CN2CCC(CNC(=O)c3cc(-c4ccccc4Cl)cs3)C2)cc1 (centres undefined) | 8.16
Clc1ccc(Nc2nc3ccc(Cl)cc3nc2Nc2ccc(Cl)cc2)cc1 | 10.1
COc1cc2c(cc1S(=O)(=O)c1ccc(COc3ccc(C(F)(F)F)cc3)cc1)CNCC2 | 14.3
Cc1cccc2[nH]c(-c3cc(-c4cccc(Cl)c4)cnc3N)nc12 | 8.72
Cc1cc(Nc2ccccc2)nc(Nc2ccccc2)n1 | 4.35
c1cc(CN2CCN(c3ccncc3)CC2)cc(-c2cccc(-c3nc4ccccc4[nH]3)c2)c1 | 13.5
Cc1cccc2nc(-c3ccc(-c4ccc(CN5CC(C)OC(C)C5)cc4)cc3)[nH]c12 (centres undefined) | 6.94
Cc1ccccc1C1CCN(C2CCC(NC(=O)/C=C/c3cccc(Cl)c3)CC2)CC1 (centres undefined) | 16.4

SMILES | IFI [%]
Cc1cc(N(C)CCCN(C)C)nc(Nc2ccc(Cl)cc2)n1 | 2.25
N=c1c(C(=O)NCc2ccccc2)cc2c(=O)n3ccccc3nc2n1CCc1ccccc1 | 2.65
CCOc1ccccc1CNc1nccc(NCc2ccc(Cl)cc2Cl)n1 | 16
O=C(NC1CCCCC1)C1CCCN(C(=O)c2ccc(O)c(-c3ccc(Cl)c(Cl)c3)c2)C1 (centres undefined) | 2.92
Clc1ccc(Cc2nc3ccccc3[nH]2)cc1Cl | 2.26
CC(C)C1=C[C@H]2C[C@]3(C4OCCO4)[C@@H]4CC[C@@H](C)[C@H]4C[C@@]2(C(=O)OCC2COCO2)[C@]13C(=O)OC(c1ccccc1)c1ccccc1 (some centres undefined) | 1.55
CN(C(=O)Nc1ccc(C(F)(F)F)cc1)C1CCN(CCCCCNC(=O)/C=C/c2ccc(Cl)c(Cl)c2)CC1 | 13.2
CN1CCN(CC(=O)Nc2cccc(-c3cccc(-c4nc5cc(F)ccc5[nH]4)c3)c2)CC1 | 6.09
O=C(NCc1cccc(CN2CCOCC2)c1)c1cc(Br)cc(N2CCN(c3ccncc3)CC2)c1 | 6.25
Cc1cc(N(C)CCCN2CCCCC2)nc(Nc2ccc(Cl)cc2)n1 | 3.52
Nc1nccc2ccc(Oc3ccncc3)cc12 | -0
O=C(Nc1ccc(OC2CCN(Cc3ccc(F)cc3)C2)cc1)c1ccco1 (centres undefined) | -0
CC(C)NCc1cc(Nc2ccnc3cc(Cl)ccc23)ccc1O | 3.57
CC(C)c1ccc(NC(=O)c2ccc(C(=O)NC3CCN(Cc4ccccc4)CC3)cc2)cc1 | 4.27
CN1CC[C@@H](Oc2cc(CNC(=O)c3ccc(-c4ccc(Cl)cc4)s3)ccc2C(F)(F)F)C1 | 8.26
CN(C)c1ccc(C2(c3ccccc3)N=C(N)N(CCCc3ccccc3)C2=O)cc1 (centres undefined) | 6.67
CC(C)CNC(=O)c1ccnc(-c2ccc(CNC3Cc4ccccc4C3)cc2)c1 | 3.03
CN(C)S(=O)(=O)n1ncc2c3c(N)nc(N)nc3ccc21 | 1.54
CCOc1ccccc1C(=O)N1CCc2cc3nccc(N4CCN5CCC[C@H]5C4)c3cc21 | 3.01
Cc1noc(-c2cccs2)c1C(=O)NC(C)c1cccc2ccccc12 (centres undefined) | 2.44
